Reference: patent US20230414771A1, “PREPARATION AND USE OF IMMUNOSTIMULATORY CONJUGATED COMPLEXES FOR TARGETED DELIVERY AND ACTIVATION” (YAFEI SHANGHAI BIOLOGY MEDICINE SCIENCE & TECHNOLOGY CO., …, priority 2020, published 2023)
Where a SMILES comes first, the peptide text is derived from it. The star is where a group is joined. Doxorubicin(3'-N) = COc1cccc2c1C(=O)c1c(O)c3c(c(O)c1C2=O)C[C@@](O)(C(=O)CO)C[C@@H]3O[C@H]1C[C@H](N*)[C@H](O)[C@H](C)O1; Mal(CH2CH2O)6CH2CH2CO = O=C1C=CC(=O)N1CCOCCOCCOCCOCCOCCOCCC(=O)*; MaleimidoPEG4propanoyl = O=C1C=CC(=O)N1CCOCCOCCOCCOCCC(=O)*; X4 = [NH3+][Pt-2]1([NH3+])[O]C(=O)C2(CN(*)C2)C(=O)[O]1; Hexanoyl(6-maleimido) = O=C1C=CC(=O)N1CCCCCC(=O)*; Butanoyl(4-maleimido) = O=C1C=CC(=O)N1CCCC(=O)*; Propanoyl(3-maleimido) = O=C1C=CC(=O)N1CCC(=O)*; PEG6 = NCCOCCOCCOCCOCCOCCOCCC(=O)O; PEG4 = NCCOCCOCCOCCOCCC(=O)O; PEG3 = NCCOCCOCCOCCC(=O)O; PEG2 = NCCOCCOCCC(=O)O

Experiment: Water solubility test (observation and HPLC)
Assay type: physicochemical
Conditions: thermodynamic from solid; lyophilized compound dissolved in water; checked by observation and HPLC (>95%)
Description: The compounds prepared in accordance with the examples of the disclosure and the reference compounds C1, C2, C3 and C4 were lyophilized (−70° C.).

With `COc1cccc2c1C(=O)c1c(O)c3c(c(O)c1C2=O)C[C@@](O)(C(=O)CO)C[C@@H]3O[C@H]1C[C@H](NC(=O)[C@H](CC(C)C)NC(=O)[C@H](CC(N)=O)NC(=O)[C@H](C)NC(=O)[C@H](C)NC(=O)[C@@H](NC(=O)CCCCCN2C(=O)C=CC2=O)[C@@H](C)O)[C@H](O)[C@H](C)O1` [QHL-130-DOX] ({Hexanoyl(6-maleimido)}-TAANL-{Doxorubicin(3'-N)}) the solubility was > 2 mg/mL.

In the case of `COc1cccc2c1C(=O)c1c(O)c3c(c(O)c1C2=O)C[C@@](O)(C(=O)CO)C[C@@H]3O[C@H]1C[C@H](NC(=O)[C@H](CC(C)C)NC(=O)[C@H](CC(N)=O)NC(=O)[C@H](C)NC(=O)[C@H](C)NC(=O)[C@H](Cc2ccc(O)cc2)NC(=O)CCCCCN2C(=O)C=CC2=O)[C@H](O)[C@H](C)O1` [QHL-132-DOX] ({Hexanoyl(6-maleimido)}-YAANL-{Doxorubicin(3'-N)}), the solubility is reported as > 2 mg/mL.

With `COc1cccc2c1C(=O)c1c(O)c3c(c(O)c1C2=O)C[C@@](O)(C(=O)CO)C[C@@H]3O[C@H]1C[C@H](NC(=O)[C@H](CC(C)C)NC(=O)[C@H](CC(N)=O)NC(=O)[C@H](C)NC(=O)[C@H](C)NC(=O)CCOCCOCCNC(=O)CCN2C(=O)C=CC2=O)[C@H](O)[C@H](C)O1` [QHL-087-DOX] the solubility was > 10 mg/mL.

For `COc1cccc2c1C(=O)c1c(O)c3c(c(O)c1C2=O)C[C@@](O)(C(=O)CO)C[C@@H]3O[C@H]1C[C@H](NC(=O)[C@H](CC(C)C)NC(=O)[C@H](CC(N)=O)NC(=O)[C@H](C)NC(=O)[C@H](C)NC(=O)CCOCCOCCOCCOCCN2C(=O)C=CC2=O)[C@H](O)[C@H](C)O1` [QHL-011-DOX] (MaleimidoPEG4propanoyl-AANL-{Doxorubicin(3'-N)}), the solubility was > 15 mg/mL.

For `COc1cccc2c1C(=O)c1c(O)c3c(c(O)c1C2=O)C[C@@](O)(C(=O)CO)C[C@@H]3O[C@H]1C[C@H](NC(=O)[C@H](CC(C)C)NC(=O)[C@H](CC(N)=O)NC(=O)[C@H](C)NC(=O)[C@H](C)NC(=O)[C@H](CCC(=O)O)NC(=O)CCOCCOCCOCCOCCNC(=O)CCCN2C(=O)C=CC2=O)[C@H](O)[C@H](C)O1` [QHL-075-DOX] ({Butanoyl(4-maleimido)-PEG4}-EAANL-{Doxorubicin(3'-N)}), the solubility was > 25 mg/mL.

For `CC(C)C[C@H](NC(=O)[C@H](CC(N)=O)NC(=O)[C@H](C)NC(=O)[C@H](C)NC(=O)CCOCCOCCNC(=O)CCCN1C(=O)C=CC1=O)C(=O)N1CC2(C1)C(=O)[O][Pt-2]([NH3+])([NH3+])[O]C2=O` [QHL-099-N-CBP] ({Butanoyl(4-maleimido)-PEG2}-AANL-X4), the solubility was > 10 mg/mL.

For `COc1cccc2c1C(=O)c1c(O)c3c(c(O)c1C2=O)C[C@@](O)(C(=O)CO)C[C@@H]3O[C@H]1C[C@H](NC(=O)[C@H](CC(C)C)NC(=O)[C@H](CC(N)=O)NC(=O)[C@H](C)NC(=O)[C@H](C)NC(=O)[C@H](CC(=O)O)NC(=O)CCOCCOCCOCCOCCOCCOCCNC(=O)CCCN2C(=O)C=CC2=O)[C@H](O)[C@H](C)O1` [QHL-084-DOX] ({Butanoyl(4-maleimido)-PEG6}-DAANL-{Doxorubicin(3'-N)}), the solubility was > 30 mg/mL.

In the case of `C[C@H](NC(=O)CCOCCOCCNC(=O)CCN1C(=O)C=CC1=O)C(=O)N[C@@H](C)C(=O)N[C@@H](CC(N)=O)C(=O)Nc1ccc(COC(=O)OCC(=O)[C@]2(O)CCC3[C@H]4CCC5=CC(=O)C=C[C@@]5(C)C4C(=O)C[C@]32C)cc1` (stereo partly shown) [QHL-086-prednisone], the solubility is reported as > 10 mg/mL.

For `COc1cccc2c1C(=O)c1c(O)c3c(c(O)c1C2=O)C[C@@](O)(C(=O)CO)C[C@@H]3O[C@H]1C[C@H](NC(=O)[C@H](CC(C)C)NC(=O)[C@H](CC(N)=O)NC(=O)[C@H](C)NC(=O)[C@H](C)NC(=O)CCOCCOCCOCCOCCOCCOCCNC(=O)CCN2C(=O)C=CC2=O)[C@H](O)[C@H](C)O1` [QHL-096-DOX] ({Propanoyl(3-maleimido)-PEG6}-AANL-{Doxorubicin(3'-N)}), the solubility was > 20 mg/mL.

In the case of `COc1cccc2c1C(=O)c1c(O)c3c(c(O)c1C2=O)C[C@@](O)(C(=O)CO)C[C@@H]3O[C@H]1C[C@H](NC(=O)[C@H](CC(C)C)NC(=O)[C@H](CC(N)=O)NC(=O)[C@H](C)NC(=O)[C@H](C)NC(=O)CCOCCOCCOCCOCCNC(=O)CCCN2C(=O)C=CC2=O)[C@H](O)[C@H](C)O1` [QHL-105-DOX] ({Butanoyl(4-maleimido)-PEG4}-AANL-{Doxorubicin(3'-N)}), the solubility is reported as > 10 mg/mL.

For `COc1cccc2c1C(=O)c1c(O)c3c(c(O)c1C2=O)C[C@@](O)(C(=O)CO)C[C@@H]3O[C@H]1C[C@H](NC(=O)[C@H](CC(C)C)NC(=O)[C@H](CC(N)=O)NC(=O)[C@H](C)NC(=O)[C@H](C)NC(=O)[C@H](CCC(=O)O)NC(=O)CCOCCOCCOCCOCCOCCOCCNC(=O)CCCN2C(=O)C=CC2=O)[C@H](O)[C@H](C)O1` [QHL-081-DOX] ({Butanoyl(4-maleimido)-PEG6}-EAANL-{Doxorubicin(3'-N)}), the solubility was > 30 mg/mL.

With `COc1cccc2c1C(=O)c1c(O)c3c(c(O)c1C2=O)C[C@@](O)(C(=O)CO)C[C@@H]3O[C@H]1C[C@H](NC(=O)[C@H](CC(C)C)NC(=O)[C@H](CC(N)=O)NC(=O)[C@H](C)NC(=O)[C@H](C)NC(=O)[C@H](CCC(=O)O)NC(=O)CCOCCOCCOCCOCCNC(=O)CCN2C(=O)C=CC2=O)[C@H](O)[C@H](C)O1` [QHL-051-DOX] ({Propanoyl(3-maleimido)-PEG4}-EAANL-{Doxorubicin(3'-N)}) the solubility was > 25 mg/mL.

In the case of `COc1cccc2c1C(=O)c1c(O)c3c(c(O)c1C2=O)C[C@@](O)(C(=O)CO)C[C@@H]3O[C@@H]1C[C@H](NC(=O)C(CC(C)C)NC(=O)[C@@H](CC(N)=O)NC(=O)[C@@H](C)NC(=O)[C@@H](C)NC(=O)CCOCCOCCOCCNC(=O)CCN2C(=O)C=CC2=O)[C@@H](O)[C@H](C)O1` (stereo partly shown) [QHL-090-epirubicin], the solubility is reported as > 10 mg/mL.

With `COc1cccc2c1C(=O)c1c(O)c3c(c(O)c1C2=O)C[C@@](O)(C(=O)CO)C[C@@H]3O[C@H]1C[C@H](NC(=O)[C@H](CC(C)C)NC(=O)[C@H](CC(N)=O)NC(=O)[C@H](C)NC(=O)[C@H](C)NC(=O)[C@H](CC(=O)O)NC(=O)CCOCCOCCOCCOCCOCCOCCN2C(=O)C=CC2=O)[C@H](O)[C@H](C)O1` [QHL-036-DOX] ({Mal(CH2CH2O)6CH2CH2CO}-DAANL-{Doxorubicin(3'-N)}) the solubility was > 30 mg/mL.

For `C[C@@H](NC(=O)CCOCCOCCOCCNC(=O)CCN1C(=O)C=CC1=O)C(=O)N[C@H](C)C(=O)N[C@H](CC(N)=O)C(=O)Nc1ccc(COC(=O)N2CC(C)(C)c3ccc(NC(=O)c4cccnc4NCc4ccncc4)cc32)cc1` [QHL-086-Motesani], the solubility was > 20 mg/mL.

In the case of `C[C@@H](NC(=O)CCOCCOCCOCCNC(=O)CCN1C(=O)C=CC1=O)C(=O)N[C@H](C)C(=O)N[C@H](CC(N)=O)C(=O)Nc1ccc(COC(=O)N(C)CCNC(=O)c2cc(Oc3ccc(NC(=O)Nc4ccc(Cl)c(C(F)(F)F)c4)cc3)ccn2)cc1` [QHL-089-compound a], the solubility is reported as > 20 mg/mL.

In the case of `COc1cccc2c1C(=O)c1c(O)c3c(c(O)c1C2=O)C[C@@](O)(C(=O)CO)C[C@@H]3O[C@H]1C[C@H](NC(=O)[C@H](CC(C)C)NC(=O)[C@H](CC(N)=O)NC(=O)[C@H](C)NC(=O)[C@H](C)NC(=O)[C@H](CC(=O)O)NC(=O)CCOCCOCCOCCOCCNC(=O)CCCN2C(=O)C=CC2=O)[C@H](O)[C@H](C)O1` [QHL-078-DOX] ({Butanoyl(4-maleimido)-PEG4}-DAANL-{Doxorubicin(3'-N)}), the solubility is reported as > 25 mg/mL.

For `COc1cccc2c1C(=O)c1c(O)c3c(c(O)c1C2=O)C[C@@](O)(C(=O)CO)C[C@@H]3O[C@H]1C[C@H](NC(=O)[C@H](CC(C)C)NC(=O)[C@H](CC(N)=O)NC(=O)[C@H](C)NC(=O)[C@H](C)NC(=O)[C@H](CC(=O)O)NC(=O)CCOCCOCCOCCNC(=O)CCN2C(=O)C=CC2=O)[C@H](O)[C@H](C)O1` [QHL-048-DOX] ({Propanoyl(3-maleimido)-PEG3}-DAANL-{Doxorubicin(3'-N)}), the solubility was > 20 mg/mL.

With `COc1cccc2c1C(=O)c1c(O)c3c(c(O)c1C2=O)C[C@@](O)(C(=O)CO)C[C@@H]3O[C@H]1C[C@H](NC(=O)[C@H](CC(C)C)NC(=O)[C@H](CC(N)=O)NC(=O)[C@H](C)NC(=O)[C@H](C)NC(=O)[C@H](CC(=O)O)NC(=O)CCOCCOCCOCCOCCNC(=O)CCN2C(=O)C=CC2=O)[C@H](O)[C@H](C)O1` [QHL-054-DOX] ({Propanoyl(3-maleimido)-PEG4}-DAANL-{Doxorubicin(3'-N)}) the solubility was > 25 mg/mL.
